The whole screen tested about 370,000 compounds, of which about 150 (0.041%) were called active. The shares of active, inactive and inconclusive entries below differ from those in the screen. The call rests on the fitted dose curve; in most records, active means well fitted inhibition curve with a large enough effect; inconclusive means small, poorly fitted or top-dose-only effect; inactive means flat fitted curve, though single readings scatter. Potencies of inconclusive entries are left out as doubtful fits.
molecular target: Beta-lactamase (Escherichia coli (strain K12)) (UniProt P00811); experiment: qHTS Inhibitors of AmpC Beta-Lactamase (assay with detergent); conditions: AmpC hydrolysis of nitrocefin, absorbance 480 nm, 0.01% Triton; series mostly up to 114 µM; further: nearly all actives have a fitted effect of over 25% in size
Sequence of UniProt P00811 (P00811 whole entry, looked up): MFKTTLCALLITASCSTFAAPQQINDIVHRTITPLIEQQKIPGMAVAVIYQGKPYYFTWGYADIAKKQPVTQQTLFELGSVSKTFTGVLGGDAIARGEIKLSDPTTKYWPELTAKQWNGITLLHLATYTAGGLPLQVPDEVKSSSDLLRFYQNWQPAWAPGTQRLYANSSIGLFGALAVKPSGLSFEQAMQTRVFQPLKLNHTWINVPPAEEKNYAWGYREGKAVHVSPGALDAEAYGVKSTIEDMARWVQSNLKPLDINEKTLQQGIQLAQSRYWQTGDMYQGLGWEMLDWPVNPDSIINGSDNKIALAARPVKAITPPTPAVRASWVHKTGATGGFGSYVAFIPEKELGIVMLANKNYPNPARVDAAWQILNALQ
In short: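 AmpC (5.3 nM in the dispensed reagent) in 20 mM phosphate pH 7.0 with 0.01% (detergent screen) or 0.0001% Triton X-100 was preincubated with compounds for 15 min at room temperature. Nitrocefin was then added from an 800 uM solution, and hydrolysis was followed at 480 nm.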
Potency means the concentration at half of the fitted maximal effect; tags describe the fitted curve by direction and shape.

Compound | Potency
COc1cccc(C(=O)/C=C/c2ccc(SC)cc2)c1 | inactive
CC(C)OC(=O)CSc1nc(-c2ccc(F)cc2)cc(C(F)(F)F)n1 | inconclusive [inhibitor, full curve, poor fit]
CCOC(=O)CSc1nnc(C2CCCCC2)n1C | inconclusive [inhibitor, partial curve]
CC1CCN(C(=O)CSc2nc3ccccc3c(=O)n2Cc2ccc3c(c2)OCO3)CC1 | inconclusive [inhibitor, partial curve, poor fit]
CCOCCCn1c(SCC(=O)Nc2cc(C)ccc2C)nc2c(oc3ccccc32)c1=O | inactive
O=C(CSc1ncccn1)NCCc1ccccc1 | inconclusive [inhibitor, partial curve, poor fit]
COc1cc(Cl)c(C)cc1NCC(=O)Nc1cccc(S(=O)(=O)N2CCCC2)c1 | inactive
CCOC(=O)CNC(=S)N(Cc1ccccc1)Cc1cccnc1 | inconclusive [inhibitor, partial curve]
C/C=C(\C)C(=O)N[C@@H](c1ccccc1)[C@@H](O)C(=O)O[C@H]1C[C@@]2(O)[C@@H](OC(=O)c3ccccc3)C3[C@](C)(C(=O)[C@H](O)C(=C1C)C2(C)C)[C@@H](O)C[C@H]1OC[C@@]31OC(C)=O (stereo partly specified) | inactive
N#Cc1c(N)nc2c(c1-c1ccncc1)CCCCC2 | inactive
O=C(NCCc1nc2ccccc2[nH]1)c1ccco1 | inconclusive [inhibitor, partial curve]
C#CCOCCOCCOCCNc1nc(N2CCN(C(=O)CCCCCCCCCCNC(=O)[C@H]([C@@H](C)CC)n3cc(CCCCN=C(N)N)nn3)CC2)nc(N2CCN(C(=O)CCCCCCCCCCNC(=O)[C@@H]([C@H](C)O)n3cc(C)nn3)CC2)n1 | inactive
COc1ccccc1NC(=O)CCN1C(=O)C2C3CCC(C3)C2C1=O (stereo unspecified) | inactive
CCOc1ccc(N(C(=O)c2ccc(Cl)cc2)S(=O)(=O)c2ccc3c(c2)n(C)c(=O)n3C)cc1 | inactive
COc1cccc(Nc2nc3ccccc3c(=O)[nH]2)c1 | inactive
Cc1ccc2c(Cl)c(C(=O)NCCCn3ccnc3)sc2c1 | inconclusive [inhibitor, partial curve]
CCC(=O)Nc1nc(C)c(-c2csc(Nc3cccc(O)c3)n2)s1 | inconclusive [inhibitor, partial curve, poor fit]
COc1ccc(S(=O)(=O)c2c(Nc3c(C)cccc3C)sc(C(=O)c3ccc(F)cc3)c2N)cc1 | inconclusive [inhibitor, full curve, poor fit]
CCOC(=O)c1sc(/N=C/c2c(O)n(-c3ccccc3)c(=O)[nH]c2=O)c(C#N)c1C | inactive
O=C(NCCc1ccccc1)c1cc(S(=O)(=O)N2CCCC2)ccc1F | inconclusive [inhibitor, full curve, poor fit]
COc1ccccc1N1CCN(C(CNS(=O)(=O)c2ccc(C)cc2)c2cccnc2)CC1 (stereo unspecified) | inconclusive [inhibitor, single point]
COC(C(=O)Nc1cc([N+](=O)[O-])ccc1C)c1ccccc1 (stereo unspecified) | inconclusive [inhibitor, full curve, poor fit]
Cc1ccnc(Nc2nc(-c3ccc(O)cc3O)cs2)c1 | inconclusive [inhibitor, full curve]
COc1ccc(NC(=S)Nc2cc(C)ccn2)c(OC)c1 | inconclusive [inhibitor, full curve, poor fit]

Compound | Potency
O=C(CSC1=NCCS1)Nc1ccc(S(=O)(=O)NC2CCCCC2)cc1 | inconclusive [inhibitor, single point]
c1ccc2sc(NC3=NCN(Cc4ccc5c(c4)OCO5)CN3)nc2c1 | inactive
Cc1c(Cl)cnc(NC(=O)COC(=O)C(NC(=O)c2ccco2)C(C)C)c1Cl (stereo unspecified) | inactive
Cc1nc2nc(Cc3ccccc3)[nH]n2c(=O)c1Cl | inconclusive [inhibitor, full curve, poor fit]
Cc1c(Cl)ccc2sc(NC(=O)c3ccco3)nc12 | inactive
Cn1cc(SCC(=O)NCc2ccc(F)cc2)c2ccccc21 | inactive
Cc1nnc(NC(=O)CSCc2ccccc2)s1 | inconclusive [inhibitor, partial curve, poor fit]
O=C(CCn1ccc2ccccc21)NC1CCCc2ccccc21 (stereo unspecified) | inconclusive [inhibitor, full curve, poor fit]
COc1ccc(CCNC(=O)C(C)OC(=O)c2nsc(Cl)c2Cl)cc1OC (stereo unspecified) | inconclusive [inhibitor, full curve]
COc1ccc(NC(=O)c2ccccc2Cl)cc1NC(=O)CN1CCOCC1 | inactive
COc1cc(OC)c2c(-c3ccccc3)cc(=O)oc2c1C(CC(=O)N1CCN(c2ccccc2)CC1)c1ccc(N(C)C)cc1 (stereo unspecified) | inactive
Cc1[nH]n(-c2ccccc2)c(=O)c1/C=N\NC(=O)C1COc2ccccc2O1 (stereo unspecified) | inactive
COC(=O)C1=COC(C)C2CN3CCc4c([nH]c5ccccc45)C3CC12 (stereo unspecified) | inactive
Cc1ccc(C)c(S(=O)(=O)N2CCN(C(=O)CSc3ccccc3F)CC2)c1 | inactive
O=C(c1ccc(Cl)c(Cl)c1)N1CCC(=O)N(C(COCc2cccc(Cl)c2)Cc2ccccc2)CC1 (stereo unspecified) | inconclusive [inhibitor, full curve, poor fit]
C/C(CC(=O)Nc1c(C)cc(C)cc1C)=N\NC(=O)c1cnccn1 | inconclusive [inhibitor, full curve, poor fit]
Cc1cccc(OCC(=O)NCc2nnc3ccc(C(F)(F)F)cn23)c1C | inconclusive [inhibitor, partial curve, poor fit]
Cc1ccc(C(=O)NC(=C(Cl)Cl)S(=O)(=O)c2ccccc2)cc1 | inactive
CC(NC(=O)c1ccccc1)C(=O)OCn1nnc2ccccc2c1=O (stereo unspecified) | inconclusive [inhibitor, single point]
O=C(COC(=O)[C@@H]1CCCN1S(=O)(=O)c1ccccc1F)NCc1ccc2c(c1)OCO2 | inconclusive [inhibitor, single point]
Fc1cccc(Cl)c1CNCc1cccnc1 | inactive
Cc1cc(Cl)ccc1OCC(=O)NNC(=O)C1CCN(c2ncnc3sc(C)c(C)c23)CC1 | inactive
CCOC(=O)C1CCCN(S(=O)(=O)c2cc3[nH]c(=O)c(=O)[nH]c3cc2C)C1 (stereo unspecified) | inactive
Cn1cc(CNC(=O)c2cc(COc3ccc4c(c3)CCCC4)on2)cn1 | inconclusive [inhibitor, full curve]

Compound | Potency
O[C@@H]1[C@@H](O)C=C2CCN3Cc4cc5c(cc4[C@H]1C23)OCO5 (stereo partly specified) | inconclusive [inhibitor, full curve]
CC(C)CCSc1nc2c(c(=O)[nH]c(=O)n2C)n1CCc1ccccc1 | inconclusive [inhibitor, full curve, poor fit]
COc1ccc(OC)c(NC(=O)c2ccc(CSc3nnc(C)s3)cc2)c1 | inactive
Cc1ccc(F)cc1CNC(=O)C1CCC(=O)N(C2CC2)C1 (stereo unspecified) | inactive
COc1cccc(/C=C2\SC(=S)N(CCCC(=O)N(CCO)c3ccccc3)C2=O)c1 | inactive
CCOC(=O)c1ccc(CNC(=O)c2cc(C(C)(C)C)oc2C)o1 | inconclusive [inhibitor, full curve, poor fit]
COc1ccc(-n2nc3ccc(NC(=O)c4c(OC)cccc4OC)cc3n2)cc1 | inactive
Cc1ccc2c(C)c(C(=O)N3CCC(O)(c4ccccc4)CC3)oc2c1C | inactive
COc1ccc(N=C2SC(CC(=O)Nc3ccc(F)cc3)C(=O)N2Cc2ccco2)cc1 (stereo unspecified) | inconclusive [inhibitor, full curve]
Cc1ccc(SC[C@H](C)CN2CC[C@H](C)CCC2=O)cc1 | inconclusive [inhibitor, full curve, poor fit]
Cc1sc2nc(C(C)C)nc(SCC(=O)NC3CC3)c2c1C | active: 14.1 µM
Cc1ccnc(NC(=O)c2cc(-n3cnnc3)ccc2Cl)c1 | inconclusive [inhibitor, partial curve]
O=C(O)CNS(=O)(=O)c1ccc(-c2ccccc2)cc1 | inconclusive [inhibitor, full curve, poor fit]
COc1ccc(OC)c(-c2[nH]nc3c2C(c2ccco2)C(C#N)=C(N)O3)c1 (stereo unspecified) | inconclusive [inhibitor, single point]
Cc1ccc(CSC2=Nc3ccccc3C3=NC(CCC(=O)NC4CCCCC4)C(=O)N23)cc1 (stereo unspecified) | inactive
CCc1c(C)sc2c1CCN(Cc1cccc(OC)c1)C2c1ccccc1 (stereo unspecified) | inactive
CCOC(=O)c1c(NC(=O)CSc2ncn[nH]2)sc(C(=O)NC)c1C | inconclusive [inhibitor, full curve]
c1ccc(-c2cc(-c3ccccc3)on2)cc1 | inactive
COC(=O)c1c(C)[nH]c(C)c1-c1ccccc1 | inconclusive [inhibitor, single point]
COc1ccc(-c2cn(CCc3c[nH]c4ccccc34)nn2)cc1 | inactive
COc1ccc(CCNC(=O)c2ccc3c(c2)N(Cc2ccc(F)cc2)CCS3)c(OC)c1 | inactive
CN1CCN(C(=O)CN2C(=O)CC(C)(C)S(=O)(=O)c3ccccc32)CC1 | inconclusive [inhibitor, full curve, poor fit]
COc1ccc(NC(=O)CSc2nc(-c3cccs3)cc(C(F)(F)F)n2)cc1Cl | inconclusive [inhibitor, single point]

Reference: PubChem BioAssay AID485294 (National Center for Advancing Translational Sciences (NCATS), 2010)
